# Measured values: paper PMC6919601, “Identification of Plasmodium dipeptidyl aminopeptidase allosteric inhibitors by high throughput screening” (PLoS ONE, 2019)
# The campaign covered roughly 110,000 compounds. About 230 (0.21%) showed an effect of 50% or more. The list shows a part of the results.
# Target: DPAP1 (Plasmodium falciparum, UniProt Q8IIJ9)
# Experiment: primary screen, percent inhibition; read by cleavage of a fluorogenic dipeptide substrate; higher = more effect of the substance
# Set-up: species or system P. falciparum D10 trophozoite lysates; single well
# 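Further: 30 min substrate incubation versus DMSO and 10 µM JCP410 controls.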
# DPAP1, sequence (Q8IIJ9 whole entry, looked up): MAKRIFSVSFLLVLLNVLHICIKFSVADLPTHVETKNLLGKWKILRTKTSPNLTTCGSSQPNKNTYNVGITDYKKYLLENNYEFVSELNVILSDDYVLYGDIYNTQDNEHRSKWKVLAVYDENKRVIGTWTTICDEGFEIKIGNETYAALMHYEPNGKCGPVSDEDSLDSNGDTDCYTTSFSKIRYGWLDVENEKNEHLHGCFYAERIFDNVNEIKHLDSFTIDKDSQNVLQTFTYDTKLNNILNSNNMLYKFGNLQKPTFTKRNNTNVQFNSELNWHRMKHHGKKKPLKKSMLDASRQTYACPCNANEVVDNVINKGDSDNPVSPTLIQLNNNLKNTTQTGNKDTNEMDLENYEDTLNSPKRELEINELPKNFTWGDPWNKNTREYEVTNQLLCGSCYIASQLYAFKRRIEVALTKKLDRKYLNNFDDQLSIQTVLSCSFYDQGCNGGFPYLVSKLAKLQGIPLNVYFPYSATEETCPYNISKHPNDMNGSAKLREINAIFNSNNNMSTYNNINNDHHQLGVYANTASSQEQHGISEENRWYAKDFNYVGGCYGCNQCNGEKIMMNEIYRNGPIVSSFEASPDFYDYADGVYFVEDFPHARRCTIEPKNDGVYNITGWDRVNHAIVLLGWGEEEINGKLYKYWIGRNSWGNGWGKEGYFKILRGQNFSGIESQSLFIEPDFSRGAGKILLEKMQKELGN
row,SMILES,% Inhibition @ 10 uM [%]
1,Cc1cc(N)nn1Cc1ccc(F)cc1,-6.65
2,CCCN1CCN(C(=O)CSc2cc(C)nc3c(-c4ccccc4OC)c(C)nn23)CC1,0.0198
3,Cc1cc(C)n(CCc2nc3c4ccccc4nc(SCC(=O)NC4CCCCC4)n3n2)n1,1.91
4,O=C(NC1(C(F)(F)F)C(=O)Nc2c1c(=O)[nH]c(=O)n2Cc1ccco1)c1ccccc1F (stereo not drawn),-2.98
5,COc1ccc(C(=O)Nc2ccc(C)c(Cl)c2)cc1,-3.44
6,O=C(Nc1ccccc1Cl)NS(=O)(=O)c1ccccc1Cl,-0.999
7,CCOC(=O)N1CCC(N2CC(C)OC(C)C2)CC1 (stereo not drawn),-1.5
8,CC(C)(c1ccc(C(=O)O)s1)c1ccc(C(=O)O)s1,2.33
9,O=C(Nc1ccc(C23CC4CC(CC(C4)C2)C3)cc1)c1ccc(S(=O)(=O)N2CCOCC2)cc1,1.57
10,CCOc1cc(-c2nc3ccc4ccccc4c3c3c2CCCC3)ccc1O,-0.436
11,COc1ccc(CCNS(=O)(=O)c2cc(-c3onc(C)c3C)ccc2C)cc1OC,-5.28
12,COc1cc(N)ccc1Cc1ccc(N)cc1OC,-0.712
13,O=C1CC(N2CCN(c3ccc(Cl)cc3)CC2)C(=O)N1c1ccc(F)cc1 (stereo not drawn),2.92
14,O=C(Nc1noc2c1COc1ccccc1-2)N1CCC(Cc2ccccc2)CC1,0.0281
15,Cc1nn(-c2cccc(Cl)c2)c2c1C(c1ccc(F)cc1)C(C#N)=C(N)O2 (stereo not drawn),-2.64
16,CC(Sc1nc2ccccc2o1)C(=O)O (stereo not drawn),1.25
17,COc1cc(CNCc2ccccc2Cl)ccc1OCC(N)=O,-5.15
18,CC1(C)CC2CC(C)(CN2C(=O)c2cc(-c3ccco3)on2)C1 (stereo not drawn),-5.09
19,CCC(C)NC(=O)C1CCN(S(=O)(=O)c2cccc3nonc23)CC1 (stereo not drawn),7.35
20,CCc1ccc2oc(-c3ccccc3)c/c(=N\CCO)c2c1,0.561
21,Cc1ccc(S(=O)(=O)NCC2(c3ccccc3)CCOCC2)cc1,-0.386
22,CCOCCCNC(=O)Cn1nc(CC)n2c(cc3occc32)c1=O,-3.79
23,CCOc1ccc2nc(C3C(=O)c4ccccc4C3=O)cc(O)c2c1,1.74
24,CC1(C)Cc2c(sc(NC(=O)C(C)(C)C)c2C#N)C(C)(C)N1,-2.68
25,CC(=O)c1cc2c(cc1NS(=O)(=O)c1ccc(Cl)cc1)OCO2,-3.92
26,CCCCn1cnc2cc(NCc3ccccn3)ccc21,0.843

row,SMILES,% Inhibition @ 10 uM [%]
1,Cc1ccccc1NC(=O)CSc1nc(C)c2c(n1)CCCC2,-1.63
2,Cc1ccc(NC(=O)CC2(CC(=O)N(C)C)CCCC2)cc1,2.43
3,Cc1cccc(CNC(=O)C(C)n2nc(C)c3c(C)n(-c4ccccc4)nc3c2=O)c1 (stereo not drawn),-6.33
4,CC(=O)c1ccc(N2CCN(Cc3ccc(C)o3)CC2)cc1,-4.75
5,O=C(Cc1ccccc1)Nc1nnc(S(=O)(=O)N2CCCC2)s1,-3.51
6,O=C(O)C1Cc2c([nH]c3ccccc23)C(c2ccc(Cl)cc2)N1 (stereo not drawn),1.29
7,COC(=O)c1sccc1N(Cc1ccc(C)cc1)S(C)(=O)=O,1.68
8,COc1cc(OC)c(OC)cc1CNCCSc1nnnn1C,-1.71
9,COc1cccc(OC)c1C(=O)Nc1ccccc1,-1.98
10,O=S(=O)(c1ccc(F)cc1)N1CCC(c2nc(O)c3nnn(Cc4cccc(F)c4)c3n2)CC1,1.12
11,O=C1N2CN(CCO)CN3C(=O)N4CN(CCO)CN1C4C23 (stereo not drawn),-0.386
12,COc1ccc(C(=O)NCc2ccncc2)cc1OC,3.65
13,O=C1CC(N2CCN(c3ncccn3)CC2)C(=O)N1c1ccc(F)cc1 (stereo not drawn),-4.82
14,COc1ccc(CNC(=O)c2csc3c2CCCCC3)cc1,3.54
15,Cc1ccc(N(CC(=O)Nc2ccccc2C(=O)N2CCOCC2)S(C)(=O)=O)cc1,-2.65
16,CCC(Oc1ccccc1)C(=O)Nc1cccnc1 (stereo not drawn),2.39
17,COc1ccc(CNC(=O)c2ccc(-c3nc(CS(=O)(=O)c4ccc(C)cc4)c(C)o3)cc2)cc1,-2.74
18,CCn1ccc(C(=O)Nc2ccc(S(=O)(=O)Nc3ccccc3OC)cc2)n1,4.44
19,COC(=O)c1ccc(CSc2nc(O)c3cnn(-c4ccc(C)c(C)c4)c3n2)o1,-3.35
20,O=C1c2cccnc2C(=O)N1Cc1ccc(S(=O)(=O)Nc2cccnc2)s1,-2.56
21,COc1ccc(C/N=C/C2=C(O)CCCC2)cc1,3.05
22,COc1cc(Br)c(C2C3=C(O)CCCC3=NC(C)=C2C(=O)N2CCOCC2)cc1OC (stereo not drawn),1.86
23,CCc1ccc(OCc2cccc(C(=O)O)c2)cc1,-3.13
24,C=CCNC(=O)C1=CC(c2ccc(OC)cc2)=NS(=O)(=O)N1C,0.655
25,N#Cc1ccccc1NC(=O)COc1ccc(Cl)cc1Cl,0.757
26,CN(C)CCN(Cc1ccccc1)Cc1ccccc1Cl,3.19

row,SMILES,% Inhibition @ 10 uM [%]
1,COc1ccc(C(=O)CCC(=O)Nc2ccc(C)cc2)cc1,0.291
2,COC(=O)c1ccc(COc2ccc3c(=O)c(Oc4ccccc4Cl)coc3c2)cc1,0.565
3,CCN1c2ccccc2N(C)C1(C)c1ccccc1 (stereo not drawn),-0.864
4,O=C(Nc1ccc(N2CCN(Cc3ccccc3)CC2)cc1)c1cncc(Br)c1,-3.45
5,Cc1cc(C)c(C)c(S(=O)(=O)N2CCC(N(C)CCC(C)C)CC2)c1C,-3.12
6,COCCNC(=O)CCCOc1ccc(Cl)cc1Cl,-0.999
7,CN(Cc1cccc(Oc2ccccc2)c1)Cc1cccc2ccccc12,1.26
8,O=C1C2C(c3ccccc3)C=CC(c3ccccc3)C2C(=O)N1CCCO (stereo not drawn),6.82
9,N#Cc1ccc(-c2ccc(OCC(=O)NCc3ccccc3)cc2)cc1,4.44
10,CCCNC(=O)CSCc1nc(-c2ccc(Cl)cc2)oc1C,-1.05
11,NC(=O)c1c(NC(=O)c2cccc(Br)c2)sc2c1CCCC2,5.12
12,COC(=O)C1=C(C)N=C(C)/C(=C(/O)OC)C1c1ccccc1Cl (stereo not drawn),2.45
13,CC1=C(C(=O)Nc2ccccc2)C2(CCCCC2)C(C#N)=C(SCc2ccccc2)N1,4.15
14,CCCC(=O)Nc1cccc(NC(=O)c2ccccc2Br)c1,-4.14
15,CSc1ccc(CN2CCN(Cc3cccc(C)c3)CC2)cc1,-4.67
16,CCCOc1ccc(C(=O)N2CCCCC2)cc1OC,3.89
17,N#CC1=C(N)N(c2ccc(Br)cn2)C2=C(C(=O)CCC2)C1c1ccsc1 (stereo not drawn),-4.67
18,CCOC(=O)c1cc(C)n(CCc2ccc(OCC)c(OCC)c2)c1C,4.82
19,COc1cc(C(=O)NCCC2=CCCCC2)cc(OC)c1OC,-0.473
20,Nc1c(C(=O)Nc2c(Cl)cccc2Cl)sc2nc(-c3cccnc3)ccc12,5.25
21,CC1(C)CC(NCc2ccccc2)CCO1 (stereo not drawn),-5.07
22,COc1cc(CNC23CC4CC(C)(CC(C)(C4)C2)C3)cc(Br)c1OCC(N)=O,-2.09
23,N#CC1=C(N)Oc2cc(O)c(Cl)cc2C1c1ccc(F)cc1 (stereo not drawn),-6.78
24,O=C(NC1CCCC1)C1CCN(S(=O)(=O)c2ccc(-n3cnnn3)cc2)CC1,-1.07
25,CN(CCc1ccccn1)Cc1ccsc1,5.35
26,COc1cccc(OCCCCNCC2CCCO2)c1 (stereo not drawn),0.565

row,SMILES,% Inhibition @ 10 uM [%]
1,Cc1cc(C)n(-c2ccc(C(=O)Nc3ccccc3)cc2)n1,-5.06
2,CCOc1ccccc1C(=O)N1CCN(c2ccccc2OC)CC1,22.6
3,CC(=O)/C(=C/Nc1ccc(F)cc1)C(=O)Nc1ccccc1,-0.864
4,COc1cccc(NC(=O)c2ccccc2C)c1,1.91
5,COc1ccc(C(=O)C2=C(O)C(=O)N(C)C2c2ccc(OC)cc2OC)cc1 (stereo not drawn),8.07
6,O=C1NC(=O)C(C(CC(=O)c2ccccc2)c2ccccc2)C(=O)N1 (stereo not drawn),1.24
7,Brc1ccc(OCCCCCN2CCCCC2)cc1,-1.41
8,CN1C(=O)N(C)c2cccc3cccc1c23,-0.0369
9,CCN(CC)CCN(C(=O)c1ccco1)c1nc2c(F)cc(F)cc2s1,-3.22
10,CSc1ccc(CN2CCN(C(C)=O)CC2)cc1,-9.4
11,Nc1c(-c2nc(-c3cccnc3)no2)nnn1-c1ccccc1F,3.73
12,COc1ccc(Cn2c(C(=O)O)c(CNC3CCCCC3)c3ccc(OC)cc32)cc1,3.12
13,CCN(CC)CCCNC(=O)C1CCN(C(=O)c2oc3cc4sc(N(C)C)nc4cc3c2C)CC1,-1.37
14,CC1CC(C)CN(S(=O)(=O)N2CCCC(C(=O)NC3CC3)C2)C1 (stereo not drawn),2.18
15,CC1=C(C(=O)Nc2ccc(C)cc2)C(c2cccs2)NC(S)=N1 (stereo not drawn),0.565
16,CC(C)CC(C)(NC(=O)OCc1ccccc1)C(=O)NCC#N (stereo not drawn),0.079
17,O=C(O)C1(c2ccc(O)cc2)CCCC1,-3.27
18,CS(=O)(=O)N(CC(=O)NC1CC2CCC1C2)c1cc(C(F)(F)F)ccc1Cl (stereo not drawn),6.5
19,COc1ccc(-n2c(SCC(=O)N3CCCC3)nc3nnc(C)c-3c2N)cc1,-0.458
20,COc1ccc(C2C(C#N)=C(N)Oc3c2sc2ccccc32)c2ccccc12 (stereo not drawn),4.55
21,COc1cc(C2C(C#N)=C(N)OC(C)=C2C(=O)OC(C)C)cc(OC)c1OC (stereo not drawn),-0.597
22,O=C(NCc1ccc(F)cc1)c1ccc2c(c1)nc(S)n1c3ccccc3nc21,2.89
23,O=C(CSc1nc2ccccc2o1)Nc1ccc(Cl)cc1Cl,6.79
24,Cc1cccc(C)c1OCC(=O)Nc1ccc(S(=O)(=O)N2CCOCC2)cc1,0.316
